Results from article PMC5342195.
No constants are given. Whether binding was seen depends on the method and setting. Binding seen in cells or lysates may run through a third protein. Some binding calls cover weakened binding; strength is not graded here.

Amino acid sequences for entries named in this document (tags omitted). A change or cut given only in a name is not applied to a line headed by its entry.
UniProt Q9UJU2: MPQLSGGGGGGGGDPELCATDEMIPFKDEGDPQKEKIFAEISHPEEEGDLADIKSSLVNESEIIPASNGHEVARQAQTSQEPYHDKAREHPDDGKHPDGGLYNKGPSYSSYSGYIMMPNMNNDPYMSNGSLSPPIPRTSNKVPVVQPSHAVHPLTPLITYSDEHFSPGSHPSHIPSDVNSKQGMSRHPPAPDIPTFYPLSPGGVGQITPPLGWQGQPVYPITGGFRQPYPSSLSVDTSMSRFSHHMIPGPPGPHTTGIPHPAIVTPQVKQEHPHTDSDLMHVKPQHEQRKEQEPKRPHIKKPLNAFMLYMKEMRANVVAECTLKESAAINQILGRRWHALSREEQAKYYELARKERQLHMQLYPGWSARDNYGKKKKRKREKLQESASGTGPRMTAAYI
UniProt P35222: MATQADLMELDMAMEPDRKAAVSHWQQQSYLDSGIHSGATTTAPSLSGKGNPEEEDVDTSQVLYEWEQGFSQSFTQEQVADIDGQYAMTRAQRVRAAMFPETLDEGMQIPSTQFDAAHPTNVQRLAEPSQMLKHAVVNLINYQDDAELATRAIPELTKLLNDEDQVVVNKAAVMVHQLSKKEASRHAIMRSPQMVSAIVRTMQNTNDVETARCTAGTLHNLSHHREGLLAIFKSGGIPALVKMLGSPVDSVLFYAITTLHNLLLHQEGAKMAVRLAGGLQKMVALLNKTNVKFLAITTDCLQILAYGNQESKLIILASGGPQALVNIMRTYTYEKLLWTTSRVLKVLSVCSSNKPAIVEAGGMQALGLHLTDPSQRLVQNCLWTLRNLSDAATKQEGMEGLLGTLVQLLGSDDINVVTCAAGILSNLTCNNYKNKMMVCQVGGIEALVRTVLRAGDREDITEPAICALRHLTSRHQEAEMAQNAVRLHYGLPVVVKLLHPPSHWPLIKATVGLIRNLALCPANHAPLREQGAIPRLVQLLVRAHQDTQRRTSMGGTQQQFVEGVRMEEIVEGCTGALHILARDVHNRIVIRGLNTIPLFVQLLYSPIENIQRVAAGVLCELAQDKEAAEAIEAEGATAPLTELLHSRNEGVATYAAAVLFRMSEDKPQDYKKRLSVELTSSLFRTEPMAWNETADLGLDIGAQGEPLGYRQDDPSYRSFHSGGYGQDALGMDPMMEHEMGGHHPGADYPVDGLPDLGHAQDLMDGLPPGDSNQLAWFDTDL

Each substance was assayed against recombinant human LEF1-GST protein (human) (UniProt Q9UJU2) (assay: pull-down; LEF1-GST on glutathione-Sepharose 4B beads incubated 3 h at 4°C with total cell lysate in RIPA (500 μg of total proteins) of Lu1205 cells transfected with HA-tagged β-catenin-NLS WT or mutants; washed five times; immunoblot; only the target purified).

Substance	binding
HA-tagged β-catenin-NLS WT (from UniProt P35222 1-781)	binds
HA-tagged β-catenin-NLS K312E (from UniProt P35222 1-781)	no binding
HA-tagged β-catenin-NLS K435E (from UniProt P35222 1-781)	no binding

Other lines, results leading:

binding	Substance
binds	HA-tagged β-catenin-NLS F660A (from UniProt P35222 1-781)
binds	HA-tagged β-catenin-NLS F660S (from UniProt P35222 1-781)
